From PubChem BioAssay AID504339 (National Center for Advancing Translational Sciences (NCATS), 2011)
Several values for one entry are separate records, joined by “and”; a condition that tells them apart may be missing. Identical values can stand only once. In all, about 390,000 compounds went through this assay and about 17,000 (4.4%) were called active. This list was built around the results that the source calls inconclusive (neither active nor inactive); the mix of calls is not that of the screen. Calls follow the shape of the dose curve; as a rule, active = well fitted inhibition curve with a large enough effect; inconclusive = small, poorly fitted or top-dose-only effect; inactive = no such curve, though single readings can be large or run the other way. A potency beside an inconclusive call is a rough fit, not a confirmed value.

These molecules were tested against Lysine-specific demethylase 4A (Homo sapiens) (UniProt O75164) (assay: qHTS Assay for Inhibitors of JMJD2A-Tudor Domain). Details: AlphaScreen JMJD2A-Tudor / H3K4me3 peptide binding; series mostly up to 114 µM.
Also: nearly all actives have a fitted effect of over 50% in size.
Potency is read from the fitted curve at half-maximal effect; tags tell the direction and shape of the fitted curve.

Chain of UniProt O75164 (O75164 whole entry, looked up, the tested form may be a part): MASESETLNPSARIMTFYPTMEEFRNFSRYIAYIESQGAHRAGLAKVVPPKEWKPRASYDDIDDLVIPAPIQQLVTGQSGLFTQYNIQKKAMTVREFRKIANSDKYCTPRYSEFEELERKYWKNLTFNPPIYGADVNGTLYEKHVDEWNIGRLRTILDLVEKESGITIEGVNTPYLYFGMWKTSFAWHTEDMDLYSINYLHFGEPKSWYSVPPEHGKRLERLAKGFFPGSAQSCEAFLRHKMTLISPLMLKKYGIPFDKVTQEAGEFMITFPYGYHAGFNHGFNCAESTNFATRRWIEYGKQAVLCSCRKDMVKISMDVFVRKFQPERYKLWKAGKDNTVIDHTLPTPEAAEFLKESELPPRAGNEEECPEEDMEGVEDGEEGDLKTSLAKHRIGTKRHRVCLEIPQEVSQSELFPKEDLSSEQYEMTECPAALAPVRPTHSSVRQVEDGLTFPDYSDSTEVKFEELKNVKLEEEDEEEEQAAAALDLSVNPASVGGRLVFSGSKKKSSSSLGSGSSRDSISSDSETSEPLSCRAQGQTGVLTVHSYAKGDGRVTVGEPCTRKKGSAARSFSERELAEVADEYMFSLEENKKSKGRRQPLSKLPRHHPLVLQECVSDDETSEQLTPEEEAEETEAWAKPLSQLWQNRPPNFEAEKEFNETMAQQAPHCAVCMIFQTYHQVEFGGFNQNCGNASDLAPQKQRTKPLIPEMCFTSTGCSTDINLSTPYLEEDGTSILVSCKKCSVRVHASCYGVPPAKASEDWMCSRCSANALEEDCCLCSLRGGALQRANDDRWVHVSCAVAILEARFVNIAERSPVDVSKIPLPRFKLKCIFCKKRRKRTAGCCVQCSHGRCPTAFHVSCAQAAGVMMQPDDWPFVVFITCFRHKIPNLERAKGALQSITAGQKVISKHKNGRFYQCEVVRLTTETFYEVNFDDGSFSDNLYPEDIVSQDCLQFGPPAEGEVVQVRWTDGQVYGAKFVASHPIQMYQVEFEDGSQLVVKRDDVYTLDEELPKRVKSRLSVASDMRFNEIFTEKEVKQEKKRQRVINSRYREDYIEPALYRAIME

Row | Structure (SMILES) | Potency
1 | C/C(=N\Nc1ccccn1)c1ccc(N2CCOCC2)cc1 | inconclusive: 50.1 µM [inhibitor, partial curve, poor fit]
2 | CCc1ccc(C(=O)c2cc3ccc(O)cc3oc2=O)cc1 | inactive
3 | Cc1ccc(CSC(Nc2ccc(F)cc2)=C(C#N)C#N)cc1 | inconclusive: 79.4 µM [inhibitor, partial curve]
4 | Cc1ccc(/C=C/C(=O)NCc2cccs2)o1 | inconclusive: 22.4 µM [inhibitor, single point]
5 | COc1ccc(C2=Nn3c(nnc3C(F)(F)F)SC2)cc1 | inactive
6 | Cc1c(Cl)cccc1NC(=O)N1CCC(CN2CCOCC2)CC1 | inactive
7 | CN(C)c1ccc(C(C(=O)NCC2CCCO2)N(Cc2ccccc2)C(=O)c2snc(C(N)=O)c2N)cc1 (centres undefined) | inconclusive: 44.7 µM [inhibitor, partial curve, poor fit]
8 | Cc1nc2sccn2c(=O)c1S(=O)(=O)N1CCN(c2cccc(Cl)c2)CC1 | inactive
9 | CCc1cc2c(=O)n3c(nc2s1)-c1[nH]c2ccc(OC)cc2c1CC3 | active: 22.4 µM
10 | Cc1ccc(C(=O)NCC(=O)NCC(=O)OCc2ccc(Oc3ccc([N+](=O)[O-])cc3)cc2)cc1 | inconclusive: 79.4 µM [inhibitor, partial curve]
11 | CCOc1cc(/C=C/c2ccc3cccc([N+](=O)[O-])c3n2)ccc1O | inconclusive: 39.8 µM [inhibitor, single point]
12 | COc1cc(NC(=O)Nc2cccc(Cl)c2)c(OC)cc1NC(=O)CN1CCCCC1 | active: 44.7 µM
13 | COc1ccc(N2CCN(C(=O)CSc3nnc(-c4cc5ccccc5cc4O)n3C)CC2)cc1 | inconclusive: 56.2 µM [inhibitor, partial curve]
14 | O=C(CSc1nccn1-c1ccccc1)Nc1ccc2c(c1)OCO2 | inconclusive: 79.4 µM [inhibitor, partial curve]
15 | COc1ccc(C2c3c(N)nc(CCCc4ccccc4)nc3Oc3ccc4ccccc4c32)cc1OC (centres undefined) | inconclusive: 63.1 µM [inhibitor, partial curve]
16 | Cc1cccc(N2CCN(c3ccc(N4C(=O)CCCC4=O)cc3[N+](=O)[O-])CC2C)c1 (centres undefined) | inconclusive: 44.7 µM [inhibitor, single point]
17 | COc1ccccc1NC1=C(Cl)C(=O)N(c2ccccc2)C1=O | inconclusive: 39.8 µM [inhibitor, partial curve]
18 | Cc1cccc(NC(=O)c2cc3c(=O)n4ccccc4nc3s2)c1 | inconclusive: 56.2 µM [inhibitor, partial curve]
19 | CC(=O)Nc1ccc(NC(=O)CSCc2cnn(-c3ccccc3)c2-n2cccc2)cc1 | inconclusive: 63.1 µM [inhibitor, partial curve, poor fit]
20 | Cc1cccc(NC(=O)CC2Nc3cccc4cccc(c34)NC2=O)c1 (centres undefined) | inconclusive: 63.1 µM [inhibitor, partial curve, poor fit] and inconclusive: 50.1 µM [inhibitor, single point]
21 | Cc1cc(/C=C2/C(=O)N(C)C(=S)N2C)c(C)n1C1CC1 | inconclusive: 56.2 µM [inhibitor, partial curve]
22 | COc1cccc(OCCCN2CCCCCC2)c1 | inconclusive: 70.8 µM [inhibitor, single point]
23 | O=C(c1cc(-c2cccs2)nn1-c1ccccc1)N1CCN(S(=O)(=O)c2ccccc2)CC1 | inactive

Row | Structure (SMILES) | Potency
24 | N[C@@H](Cc1c[nH]c2ccc(O)cc12)C(=O)O | inconclusive: 56.2 µM [inhibitor, partial curve]
25 | CCOc1cccc(OCCCNCCCOC)c1 | active: 2.82 µM
26 | CC(C)N(C(=O)[C@H]1CC(CC(=O)NCCC2=CCCCC2)C(=O)N2CCc3c([nH]c4ccccc34)[C@]12C)C(C)C (some centres undefined) | inconclusive: 50.1 µM [inhibitor, partial curve]
27 | COc1ccc(Nc2nc(-c3ccc4c(c3)NC(=O)CO4)cs2)cc1 | inconclusive: 31.6 µM [inhibitor, partial curve]
28 | CCOC(=O)CNC(=O)C(=O)c1c(O)[nH]c2ccccc12 | active: 50.1 µM
29 | O=C(NC(NC(=S)Nc1cc(Cl)ccc1Cl)C(Cl)(Cl)Cl)c1ccco1 (centres undefined) | inconclusive: 70.8 µM [inhibitor, partial curve]
30 | O=C(COC(=O)c1ccco1)NCc1ccco1 | inactive
31 | [O-]/[N+](=C/c1ccc(F)cc1)c1ccc(Cl)cc1 | inactive
32 | Cc1cc2oc(=O)cc(CN3CCOCC3)c2c(C)c1Cl | inactive
33 | Cc1ccc(-c2csc(NC(=O)Cc3ccc(F)cc3)n2)o1 | inactive
34 | NNc1nc(NCc2ccccc2)nc(N2CCOCC2)n1 | inconclusive: 79.4 µM [inhibitor, partial curve]
35 | COc1ccc(CC2(C)OC(c3ccc([N+](=O)[O-])cc3)=NN2C(C)=O)cc1 (centres undefined) | inconclusive: 25.1 µM [inhibitor, full curve]
36 | CCOc1ccc(C(=O)N/N=C/c2cc(Cl)ccc2[N+](=O)[O-])cc1 | inconclusive: 79.4 µM [inhibitor, partial curve]
37 | O=c1c2cc([N+](=O)[O-])cc([N+](=O)[O-])c2[nH]n1-c1ccccc1 | active: 35.5 µM
38 | CC1=C(CC[C@@H](C)CO)OC2CC3C4CCC5CC(O)CCC5(C)C4CC(=O)C3(C)C12 (some centres undefined) | inactive
39 | COc1cc(CNc2ncc(-c3ccc(Br)cc3)n2C)cc(OC)c1O | inconclusive: 56.2 µM [inhibitor, partial curve]
40 | O=C1C=C(Nc2ccccc2C(=O)O)c2ccccc2C1=O | active: 22.4 µM
41 | CCOc1ccc(Nc2nc(N)c(C(=O)c3ccccc3Cl)s2)cc1 | active: 44.7 µM
42 | Cc1occc1CNc1ncnc2ccc(-c3ccc4c(c3)OCO4)cc12 | inconclusive: 79.4 µM [inhibitor, partial curve]
43 | CC(=O)OC1=C(C(C)=O)N(Cc2ccccc2)S(=O)(=O)c2ccccc21 | inconclusive: 50.1 µM [inhibitor, partial curve]
44 | CC(=O)N1CCC2(CC1)OC(=O)C(C)=C2C(=O)NCc1ccccc1Cl | inactive
45 | Cc1cccc(OCCCC(=O)Nc2ccc(N(C)C)cc2)c1 | inconclusive: 15.8 µM [inhibitor, full curve]
46 | CN(C)c1ccc(/C=N/NC(=O)CNC(=O)/C=C/c2ccco2)cc1 | inconclusive: 89.1 µM [inhibitor, partial curve]

Row | Structure (SMILES) | Potency
47 | NC(=O)C1CCCCc2c1[nH]c1ccc(Cl)cc21 (centres undefined) | inconclusive: 56.2 µM [inhibitor, partial curve]
48 | Cc1cc2c(cc1C)-c1c(ssc1=Nc1ccc(S(N)(=O)=O)cc1)C(C)(C)N2 | inconclusive: 10 µM [inhibitor, full curve]
49 | CCn1nc(C)c(CNC(=O)c2cc(COc3ccc(F)cc3Cl)on2)c1C | inactive
50 | COC(=O)C1N[C@@H]([C@@H](NC(=O)COc2ccccc2)C(=O)NCc2ccc(OC)cc2)SC1(C)C (some centres undefined) | inactive
51 | O=C(O)c1cccc(N2C(=O)c3cc([N+](=O)[O-])cc4cc([N+](=O)[O-])cc(c34)C2=O)c1 | active: 50.1 µM
52 | COc1ccc(/C(O)=C2\C(=O)C(=O)N(c3cc(C)on3)C2c2cccc(OC)c2OC)cc1C (centres undefined) | inactive
53 | COc1ccc(C2c3c(n(C)c4ccccc34)C(=O)N2CC(=O)Nc2c(C)cc(C)cc2C)cc1 (centres undefined) | inactive
54 | COc1ccc(CCN2C(=O)C=CC2=O)cc1OC | active: 31.6 µM
55 | CC(Sc1nnc(COc2ccc([N+](=O)[O-])cc2)n1C)C(=O)O (centres undefined) | inactive
56 | CCOC(=O)C1CCCN(C(=O)/C=C/c2ccccc2[N+](=O)[O-])C1 (centres undefined) | inconclusive: 12.6 µM [inhibitor, partial curve]
57 | CN(C)c1cc2c3ccccc3n(C)c2cc1N | active: 31.6 µM
58 | CN(C)S(=O)(=O)c1cccc(NC(=O)CN2C(=O)NC(Cc3ccccc3)C2=O)c1 (centres undefined) | inactive
59 | COc1ccccc1/C=C1\SC(=O)N(CC(=O)NCCCn2ccnc2)C1=O | inconclusive: 50.1 µM [inhibitor, partial curve]
60 | COC(=O)C1=C(C)N(Cc2ccccc2)C(=NCCc2ccccn2)N[C@H]1c1cccc(F)c1 | inconclusive: 39.8 µM [inhibitor, partial curve]
61 | CCN(CC)c1ccc(-c2sc(Nc3ccccc3)n[n+]2-c2ccc(F)cc2)cc1 | active: 56.2 µM
62 | CN(CCOc1ccccc1)C(=O)c1cc(-c2ccco2)nc2ccccc12 | inconclusive: 50.1 µM [inhibitor, partial curve]
63 | CCOc1ccc(Nc2sc(C(=O)c3ccc(F)cc3)c(N)c2S(=O)(=O)c2ccc(C)cc2)cc1 | inconclusive: 44.7 µM [inhibitor, partial curve]
64 | CN(C)CCOCCOc1ccccc1-c1ccccc1 | active: 2.82 µM
65 | CCN(CC)C(=O)[C@H]1C[C@H](CC(=O)NCCCN(C)C)C(=O)N2CCc3c([nH]c4cc(-c5ccco5)ccc34)[C@]12C | inconclusive: 56.2 µM [inhibitor, partial curve]
66 | Cc1ccc(C(=O)OC2=C(C(=O)c3ccccc3)N(C)S(=O)(=O)c3ccccc32)cc1 | inconclusive: 63.1 µM [inhibitor, partial curve, poor fit]
67 | C[N+]1(CC(O)COc2ccccc2)CCN(C(=O)c2ccc([N+](=O)[O-])cc2)CC1 (centres undefined) | inconclusive: 31.6 µM [inhibitor, single point]
68 | CCCCCC1C(=O)N2C=C(c3ccccc3)c3ccccc3N2C1=O (centres undefined) | active: 56.2 µM
69 | CCOc1ccc(CN(C)CC(=O)Nc2ccc3c(c2)CCC3)cc1OC | inactive
